About 220 (0.56%) of roughly 39,000 compounds showed activity. This is one part of the list.

38 molecules from the supplement of paper PMC9446081 can be followed below.
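Further: static incubation at 37 °C against the wild-type strain, values averaged over two biological replicates.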

The test system of this assay is Escherichia coli K-12 BW25113. The assay is described as follows: relative growth (OD600 normalised to plate interquartile mean) (fraction); higher = less growth inhibition, active = 0.2 or less. Conditions: 50 µM; LB; incubation time: overnight (16-24 h).
For `CO[C@H]1O[C@H](CO)[C@@H](OC(=O)Nc2ccc3c(c2)OCO3)[C@H](OC(=O)Nc2ccc3c(c2)OCO3)[C@@H]1OC(=O)Nc1ccc2c(c1)OCO2`, the relative growth is inactive: 1.
In the case of `CC(C)(C)S(=O)N1Cc2cc(C(=O)NCc3ccc4c(c3)OCO4)nc(-c3cccc(-c4cccc(F)c4)c3)c2[C@H]1CCO` (stereo partly drawn) it was inactive: 1.04; in that of `C[C@@H]1CN([C@@H](C)CO)C(=O)c2cc(NC(=O)Nc3cccc4ccccc34)ccc2O[C@@H](C)CCCCO[C@@H]1CN(C)Cc1ccccc1`, inactive: 1.03; in that of `CC(=O)OCCn1c(=O)[nH]c(=O)c2nsnc21`, inactive: 0.94.
For `Cc1cc(C(=O)Nc2cccc3c2O[C@@H](CN(C)S(=O)(=O)c2ccc(Cl)cc2)[C@H](C)CN([C@H](C)CO)C3=O)n(C)n1`, the relative growth is inactive: 0.999.
In the case of `CN1CCc2nc(C(=O)N[C@@H]3C[C@@H](C(=O)N(C)C)CC[C@@H]3NC(=O)C(=O)Nc3ccc(Cl)cn3)sc2C1` it was inactive: 1.02.
In the case of `COc1cccc(NC(=O)N[C@H]2C=C[C@H](CC(=O)N3CCOCC3)O[C@H]2CO)c1` it was inactive: 1.01; in that of `C[C@@H]1CN([C@@H](C)CO)C(=O)c2cccc(NC(=O)c3nc4ccccc4s3)c2O[C@H]1CN(C)C(=O)Nc1ccc(F)cc1`, inactive: 1.03.
In the case of `C[C@H](CO)N1C[C@H](C)[C@@H](CN(C)S(=O)(=O)c2ccccc2)Oc2ncc(Br)cc2C1=O` it was inactive: 1.
For the molecule `C[C@H](CO)N1C[C@H](C)[C@@H](CN(C)C(=O)Nc2ccccc2)OCCCC[C@H](C)Oc2ccc(NC(=O)Nc3ccccc3)cc2C1=O`, the relative growth is inactive: 1.
In the case of `C[C@@H]1CCCCO[C@@H](CN(C)Cc2ccc(C(F)(F)F)cc2)[C@H](C)CN([C@@H](C)CO)C(=O)c2cc(NC(=O)NC3CCCCC3)ccc2O1` it was inactive: 0.965.
For `CC(C)NC(=O)N(C)C[C@@H]1Oc2ccc(NC(=O)c3ccncc3)cc2CC(=O)N([C@H](C)CO)C[C@@H]1C`, the relative growth was inactive: 0.979.
In the case of `O=C(C[C@@H]1C=C[C@H](NC(=O)C2CCC2)[C@@H](CO)O1)NCCCN1CCOCC1`, the relative growth is inactive: 0.998.
In the case of `CC1(C)Cc2cc(CN)ccc2O1` it was inactive: 1.03.
In the case of `C[C@@H]1CN([C@H](C)CO)C(=O)c2cc(NC(=O)C3CCCCC3)ccc2O[C@@H](C)CCCCO[C@H]1CN(C)Cc1ccccc1` it was inactive: 1; in that of `O=c1c(O[C@@H]2O[C@H](CO)[C@H](O)[C@H](O)[C@H]2O)c(-c2ccc(O)c(O)c2)oc2cc(O)cc(O)c12`, inactive: 0.986.
In the case of `COc1ccc(C#Cc2ccc3c(c2)O[C@@H](CN(C)C(C)=O)[C@H](C)CN([C@H](C)CO)S3(=O)=O)cc1` it was inactive: 0.986; in that of `CN(C)CC(=O)N[C@@H]1CC[C@@H](CCn2cc(CN(C)C)nn2)O[C@H]1CO`, inactive: 1.01.
For `C[C@@H]1CN([C@@H](C)CO)C(=O)c2cc(NS(=O)(=O)c3ccc(F)cc3)ccc2O[C@@H](C)CCCCO[C@H]1CN(C)C(=O)C1CCCCC1`, the relative growth was inactive: 1.03.
Regarding `CN1CCN(C(=O)C[C@@H]2CC[C@H]3[C@@H](COC[C@H](O)CN3C(=O)C3CCCC3)O2)CC1`, the relative growth was inactive: 0.927.
In the case of `C[C@@H]1CN([C@@H](C)CO)C(=O)Cc2cc(NC(=O)CCCCCC(=O)Nc3ccccc3N)ccc2O[C@H]1CN(C)S(=O)(=O)c1cn(C)cn1` it was inactive: 0.969.
Take `C[C@@H]1CN([C@H](C)CO)C(=O)c2cccc(NC(=O)NC3CCCCC3)c2O[C@@H]1CN(C)S(=O)(=O)c1cn(C)cn1`: the relative growth was inactive: 1.02.
In the case of `CCS(=O)(=O)Nc1ccc2c(c1)C(=O)N(C)[C@H]1CC[C@@H](CC(=O)NCCCN3CCOCC3)O[C@H]1CO2` it was inactive: 1.02; in that of `Cc1noc(C)c1S(=O)(=O)Nc1cccc2c1O[C@@H](CN(C)CC1CC1)[C@@H](C)CN([C@@H](C)CO)C2=O`, inactive: 0.99.
In the case of `C[C@H]1CN([C@@H](C)CO)S(=O)(=O)c2ccc(-c3ccncc3)cc2O[C@H]1CN(C)S(=O)(=O)c1ccccc1F` it was inactive: 0.98; in that of `Cc1ccc(S(=O)(=O)Nc2ccc3c(c2)C(=O)N([C@@H](C)CO)C[C@H](C)[C@@H](CN(C)C(=O)NC(C)C)O3)cc1`, inactive: 1.02; in that of `Cc1noc(C)c1S(=O)(=O)Nc1ccc2c(c1)C(=O)N([C@H](C)CO)C[C@H](C)[C@@H](CN(C)C(=O)Nc1ccccc1)O2`, inactive: 0.984.
`C[C@H](CO)N1C[C@H](C)[C@H](CN(C)S(=O)(=O)c2cccs2)Oc2c(NC(=O)C3CC3)cccc2C1=O`: the relative growth was inactive: 0.995.
In the case of `CCC1C(=O)OCC1Cc1cncn1C.O=[N+]([O-])O` (stereo not drawn) it was inactive: 1.03; in that of `COC(=O)C[C@@H]1CC[C@@H]2[C@H](COC[C@@H](O)CN2S(=O)(=O)c2ccc(F)cc2)O1`, inactive: 0.96; in that of `O=C(NCC(F)(F)F)c1cc2c(c(-c3cccc(-c4ccccc4F)c3)n1)[C@@H](CCO)N(C(=O)CC1CC1)C2`, inactive: 1.09.
In the case of `O=C(C[C@H]1C[C@@H]2c3cc(NS(=O)(=O)c4ccc(F)cc4)ccc3O[C@@H]2[C@@H](CO)O1)NCc1cccc(F)c1` it was inactive: 1; in that of `Cc1ccc(S(=O)(=O)Nc2ccc3c(c2)C(=O)N([C@@H](C)CO)C[C@@H](C)[C@@H](CN(C)C(=O)Nc2ccc4c(c2)OCO4)OCCCC[C@H](C)O3)cc1`, inactive: 1.
In the case of `C[C@@H]1[C@H]2[C@H](O[C@@H]3O[C@H](CO)[C@@H](O)[C@H](O)[C@H]3O)OC=C(C(=O)O)[C@H]2C[C@@H]1OC(=O)/C=C/c1ccc(O)cc1` it was inactive: 0.966.
Consider `C[C@@H]1CN([C@@H](C)CO)C(=O)c2cccc(NS(=O)(=O)c3ccc(Cl)cc3)c2O[C@@H]1CN(C)C(=O)Nc1ccc(C(F)(F)F)cc1`, for which the relative growth was inactive: 1.05.
In the case of `C[C@H]1CN([C@@H](C)CO)C(=O)c2cc(NC(=O)Nc3ccc(C(F)(F)F)cc3)ccc2O[C@@H]1CN(C)Cc1ccc(-c2ccccc2)cc1` it was inactive: 1.03; in that of `Cc1ccc(S(=O)(=O)N(C)C[C@H]2OCCCC[C@H](C)Oc3ccc(NS(=O)(=O)c4ccc(F)cc4)cc3C(=O)N([C@H](C)CO)C[C@H]2C)cc1`, inactive: 1.04; in that of `CN1CCN(C(=O)C[C@H]2CC[C@H]3[C@H](COc4ccc(NC(=O)c5ccc(F)c(F)c5)cc4C(=O)N3C)O2)CC1`, inactive: 1.01.
